# Experimental data taken from PubChem BioAssay AID493131 (Broad Institute, 2011).
# Out of some 340,000 compounds screened, about 3,300 (0.97%) were called active. The inconclusive results got no clear call from the source; some entries with a clear call stand among them for comparison.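 How the source made its calls: active means mean activation above about 17%, with every replicate also reaching it (limit read from the data, passing the limit was not always enough); inconclusive means only one of the two conditions met; inactive means the rest.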
# Target: Protein FosB (Mus musculus) (UniProt P13346)
# Test: enhancers of mouse delta FosB DNA binding – biochemical, fluorescence polarization, TAMRA-CDK5 oligo, single point, primary screen (AID 493131);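 further: fluorescence polarization rise as delta FosB binds a TAMRA Cdk5 AP-1 oligo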
# Conditions: purified delta FosB, at 25 µM, active compounds read high, percent of positive-control signal above neutral wells
# UniProt P13346, sequence (P13346 whole entry, looked up): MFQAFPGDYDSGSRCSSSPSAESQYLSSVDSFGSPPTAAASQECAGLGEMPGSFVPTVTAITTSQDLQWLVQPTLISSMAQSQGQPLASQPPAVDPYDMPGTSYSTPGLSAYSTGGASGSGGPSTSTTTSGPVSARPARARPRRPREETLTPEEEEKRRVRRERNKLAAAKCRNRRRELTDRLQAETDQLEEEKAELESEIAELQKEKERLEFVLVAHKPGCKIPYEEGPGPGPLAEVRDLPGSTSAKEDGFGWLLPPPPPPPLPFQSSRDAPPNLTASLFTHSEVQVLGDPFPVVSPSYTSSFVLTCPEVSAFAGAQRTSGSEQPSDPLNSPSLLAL
row,Structure (SMILES),activation
1,Cc1cc(NC(=O)CSc2nc3ccccc3cc2C#N)no1,inconclusive: 16.5%
2,CCN(CC)CCOC(=O)c1ccc(NC(=O)CCCN2C(=O)/C(=C/c3cccs3)SC2=S)cc1,inconclusive: 19%
3,COc1ccccc1NS(=O)(=O)c1ccc(N/N=C/c2ccccc2OCC(=O)O)c([N+](=O)[O-])c1,inactive: -8.05%
4,O=C(Nc1ccc(N2CCOCC2)c(Cl)c1)c1cccnc1,inactive: 2.79%
5,CCCCNC(=O)CSc1nc2cc3c(cc2c(=O)n1CCC(=O)NCCc1ccc(OC)c(OC)c1)OCO3,inconclusive: 17.1%
6,COCCn1c(-c2ccc(Br)cc2)csc1=Nc1cccnc1,inactive: -8.61%
7,CC(CNC(=O)COc1ccccc1)OC(=O)Nc1ccc(Cl)c(Cl)c1 (centres undefined),inactive: -3%
8,Cc1cccc2sc(NC(=O)CNS(=O)(=O)c3ccc(Br)s3)nc12,inconclusive: 19.5%
9,Cc1ccc2nc(SCC(=O)c3c(C)[nH]c4ccccc34)[nH]c2c1,inconclusive: 26%
10,COc1ccc(Cc2nc3ccccc3n2CC(=O)N/N=C/c2ccc(C)cc2O)cc1OC,inconclusive: 19.7%
11,C=CCn1c(=NC(=O)c2cccs2)sc2cc(NC(C)=O)ccc21,inconclusive: 18.9%
12,Cc1nn(Cc2c(Cl)cccc2Cl)c(C)c1NC(=O)c1sc2ccccc2c1Cl,active: 40.5%
13,CC(C)C(NS(=O)(=O)c1cccc2nsnc12)C(=O)Nc1nc2ccc(Cl)cc2s1 (centres undefined),inconclusive: 17.4%
14,Cc1ccc(C)c(S(=O)(=O)N2CCN(C(=O)Cc3ccc(S(=O)(=O)N4CCOCC4)s3)CC2)c1,inactive: -7.84%
15,COc1ccc(NS(=O)(=O)c2cccc(C(=O)N/N=C/c3cn(-c4ccccc4)nc3-c3ccccc3)c2)cc1,inconclusive: 20%
16,Fc1ccc2c(c1)Sc1ccc(Cl)cc1CC2N1CCN(CCC2OCCO2)CC1 (centres undefined),inconclusive: 17.9%
17,CC(NC(=O)c1ccccc1Br)c1nnc(SCc2ccc([N+](=O)[O-])cc2)n1C (centres undefined),inconclusive: 19.5%
18,COc1cc2c(cc1[N+](=O)[O-])n(C(C)C)c(=O)n2C(C)C,inactive: -11%
19,O=C(Nc1ccc2oc(-c3ccccc3Cl)nc2c1)c1cncc(Br)c1,active: 64%
20,Cc1ccc(C(=O)Nc2ccc(N3CCCC3)cc2)c(C)c1,active: 49%
21,O=C(CCc1nc2ccccc2c(=O)[nH]1)Nc1nnc(SCc2ccc(Cl)cc2)s1,inconclusive: 21.6%
22,CCc1ccccc1OCC(=O)Nc1ccc(N2CCCC2)cc1C,inconclusive: 18.7%
23,CCn1nc(C(=O)OCC(=O)Nc2nc(-c3ccc(OC)cc3)cs2)c2ccccc2c1=O,inconclusive: 20.6%
24,COc1ccc(/C=C/C(=O)NC(=S)Nc2ccccc2C(=O)NC2CCCCC2)cc1,active: 44.5%
25,Cn1c(CNC(=O)c2ccc(Cl)cc2)nnc1SCC(=O)Nc1sc2c(c1C#N)CCCC2,inconclusive: 22.6%
26,Cc1nn(Cc2ccccc2Cl)c(C)c1C(=O)NCCN1C(=O)S/C(=C\c2ccccc2)C1=O,inconclusive: 16.7%
27,Cc1cc(C)c2cc3c(ccn3C3OC[C@H](O)[C@H](O)[C@H]3O)cc2n1 (some centres undefined),inconclusive: 16.8%

row,Structure (SMILES),activation
1,O=C(Nc1cc(F)cc(F)c1)c1ccc(NCCc2ccccc2)c([N+](=O)[O-])c1,inconclusive: 26.3%
2,COc1ccc(Nc2ccnc(Nc3ccc(OC)cc3)n2)cc1,inconclusive: 19.6%
3,COc1ccc(COc2cc(-c3cccc(OC)c3)nc3ccc(NC(=O)c4ccc(OC)cc4)cc23)cc1,inconclusive: 18.8%
4,COc1cccc(CNC(=O)c2nnn(CC(=O)Nc3ccc(Br)cc3)c2N)c1,inconclusive: 16.9%
5,Cc1ccc(-c2nc3ccccc3[nH]2)cc1NC(=O)c1sc2cc(Cl)ccc2c1Cl,inconclusive: 18.4%
6,OCCCCCN=c1cc(-c2ccccc2)oc2ccc(Cl)cc12,active: 21.5%
7,CCOC(=O)c1c(/N=C/c2cc(C)ccc2O)sc2c1CCN(C)C2,inactive: 2.9%
8,CCc1nonc1NC(=O)c1oc2cc(C)c(C)cc2c1C,inconclusive: 16%
9,COc1ccc(-n2c(=S)[nH]c3cc(C(=O)NCc4ccc(F)cc4)ccc3c2=O)c(OC)c1,inconclusive: 19.7%
10,c1ccc(-c2cc3cc4c(cc3cn2)OCO4)cc1,inactive: -22%
11,COc1ccc(-c2csc(NC(=O)CCn3cnc4ccccc4c3=O)n2)cc1OC,inconclusive: 17.1%
12,COc1ccc(C(C(=O)NC2CCCCC2)N(C(=O)c2snc(C(N)=O)c2N)c2ccc(OC)cc2OC)cc1 (centres undefined),inconclusive: 16.7%
13,CC(=O)c1ccc(NC(=O)COC(=O)c2ccccc2Sc2ccccc2C#N)cc1,active: 39.5%
14,COc1cc2[nH]c(=S)n(Cc3ccc(F)cc3)c(=O)c2cc1OC,inconclusive: 17.3%
15,COc1ccc(-c2cc(C(=O)Nc3cnn(Cc4ccccc4C)c3)no2)cc1OC,inconclusive: 24.8%
16,Nc1nc(-c2ccccn2)nc(N)c1Cc1ccc(Cl)cc1Cl,inconclusive: 21.4%
17,Nc1nc(N)c(C=Nc2ccc(Br)cc2)c(Nc2ccc(Br)cc2)n1,active: 108%
18,CC1CCN(c2nc3ccc(C(=O)N4CCN(Cc5ccc6c(c5)OCO6)CC4)cc3s2)CC1,inactive: -12.3%
19,O=C(CSc1ccc2nnc(-c3ccccn3)n2n1)Nc1ccccc1,inactive: -5.53%
20,O=C(N/N=C/c1ccc(O)cc1O)c1ccc(NC(=O)C2CCCCC2)cc1,inconclusive: 17.6%
21,CCOC(=O)c1ccc(NC(=O)CSc2nc(=O)n3cccc(C)c3n2)cc1,active: 28.8%
22,Nc1nc(CSC(=S)N2CCOCC2)nc(Nc2ccc(F)cc2)n1,inconclusive: 21.2%
23,Cc1cccc(N2CCc3c2nc2ccc(Br)cc2c3N)c1,active: 33.4%
24,O=C(Nc1nc(-c2ccc(F)c(F)c2)cs1)Nc1ccc(F)cc1F,inconclusive: 20.4%
25,NS(=O)(=O)c1ccc2nc(NC(=O)c3ccc4c(c3)OCCO4)sc2c1,inconclusive: 29.2%
26,CSc1ccccc1NC(=O)Cn1nnc(-c2ccc(S(C)(=O)=O)cc2)n1,active: 29.9%
27,Cc1ccc(NC(=O)CCN2C(=O)c3ccccc3C2=O)c(C)c1,inconclusive: 18.8%
